# Data published in the supplement of paper PMC8728848.
# This is one part of the list.
# Key:
# Assay in all cases: glycan array binding signal (z-score within array); higher = stronger binding
# Conditions in all cases: glycan notation: IUPAC condensed, linker removed
# [1] = target: Gal6S(b1-4)Glc6S
# Procedure, shortened: (§1)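 The binding signal is a Z-score computed within each array and averaged over linkers. Arrays of the same protein sequence at different concentrations or buffers were also averaged together. Data originate from 3228 arrays in the Consortium for Functional Glycomics database, kept only where the protein sequence was available.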
# [2] = target: Gal6S(b1-4)GlcNAc
# Procedure, shortened: as §1
# [3] = target: Gal6S(b1-4)GlcNAc6S
# Procedure, shortened: as §1
# [4] = target: GalNAc(a1-3)Gal
# Procedure, shortened: as §1
# [5] = target: GalNAc(a1-3)GalNAc
# Procedure, shortened: as §1
# [6] = target: GalNAc(a1-3)GalNAc(b1-3)Gal(a1-4)Gal(b1-4)Glc
# Procedure, shortened: as §1
# [7] = target: GalNAc(a1-3)GalNAc(b1-3)Gal(a1-4)Gal(b1-4)GlcNAc
# Procedure, shortened: as §1
# [8] = target: GalNAc(b1-3)Gal
# Procedure, shortened: as §1
# [9] = target: GalNAc(b1-3)Gal(a1-4)Gal(b1-4)GlcNAc
# Procedure, shortened: as §1
# [10] = target: GalNAc(b1-3)Gal(a1-4)Gal(b1-4)GlcNAc(b1-3)Gal(b1-4)Glc
# Procedure, shortened: as §1
# [11] = target: GalNAc(b1-3)Gal(a1-6)Gal(b1-4)Glc
# Procedure, shortened: as §1
# [12] = target: GalNAc(b1-3)GalNAc
# Procedure, shortened: as §1
# [13] = target: GalNAc(b1-3)GlcNAc
# Procedure, shortened: as §1
# [14] = target: GalNAc(b1-4)Gal(b1-4)Glc
# Procedure, shortened: as §1
# [15] = target: GalNAc(b1-4)GlcNAc
# Procedure, shortened: as §1
# [16] = target: GalNAc(b1-4)GlcNAc(b1-2)Man
# Procedure, shortened: as §1
# [17] = target: GalNAc(b1-4)GlcNAc(b1-2)Man(a1-3)[GalNAc(b1-4)GlcNAc(b1-2)Man(a1-6)]Man(b1-4)GlcNAc(b1-4)GlcNAc
# Procedure, shortened: as §1
# [18] = target: GalNAc(b1-4)GlcNAc(b1-3)GalNAc(b1-4)GlcNAc
# Procedure, shortened: as §1
# [19] = target: GalNAc(b1-4)GlcNAc6S
# Procedure, shortened: as §1
# [20] = target: GalNAc(b1-6)GalNAc
# Procedure, shortened: as §1
# [21] = target: GalNAc3S(b1-4)GlcNAc
# Procedure, shortened: as §1
# [22] = target: GalNAc3S(b1-4)GlcNAc3S
# Procedure, shortened: as §1
# [23] = target: GalNAc3S(b1-4)[Fuc(a1-3)]GlcNAc
# Procedure, shortened: as §1
# [24] = target: GalNAc4S6S(b1-4)GlcNAc
# Procedure, shortened: as §1
# [25] = target: GalNAc6S(b1-4)GlcNAc
# Procedure, shortened: as §1
# [26] = target: Glc(a1-4)Glc
# Procedure, shortened: as §1
# [27] = target: Glc(a1-4)Glc(a1-4)Glc(a1-4)Glc
# Procedure, shortened: as §1
# [28] = target: Glc(a1-6)Glc(a1-6)Glc
# Procedure, shortened: as §1
# [29] = target: Glc(a1-6)Glc(a1-6)Glc(a1-6)Glc
# Procedure, shortened: as §1
# [30] = target: Glc(b1-4)Glc
# Procedure, shortened: as §1
# [31] = target: Glc(b1-6)Glc
# Procedure, shortened: as §1
# [32] = target: GlcA(b1-3)Gal
# Procedure, shortened: as §1
# [33] = target: GlcA(b1-3)GlcNAc
# Procedure, shortened: as §1
# [34] = target: GlcA(b1-6)Gal
# Procedure, shortened: as §1
# [35] = target: GlcA3S(b1-3)Gal(b1-4)GlcNAc(b1-2)Man
# Procedure, shortened: as §1
# [36] = target: GlcA3S(b1-3)Gal(b1-4)GlcNAc(b1-3)Gal(b1-4)Glc
# Procedure, shortened: as §1
# [37] = target: GlcNAc(a1-3)Gal(b1-4)GlcNAc
# Procedure, shortened: as §1
# [38] = target: GlcNAc(a1-4)Gal(b1-3)GlcNAc
# Procedure, shortened: as §1
# [39] = target: GlcNAc(a1-4)Gal(b1-4)GalNAc
# Procedure, shortened: as §1
# [40] = target: GlcNAc(a1-4)Gal(b1-4)GlcNAc
# Procedure, shortened: as §1
# [41] = target: GlcNAc(a1-4)Gal(b1-4)GlcNAc(b1-3)Gal(b1-4)Glc
# Procedure, shortened: as §1
# [42] = target: GlcNAc(a1-4)Gal(b1-4)GlcNAc(b1-3)Gal(b1-4)GlcNAc
# Procedure, shortened: as §1
# [43] = target: GlcNAc(a1-4)Gal(b1-4)GlcNAc(b1-3)Gal(b1-4)GlcNAc(b1-3)Gal(b1-4)GlcNAc
# Procedure, shortened: as §1
# [44] = target: GlcNAc(a1-4)Gal(b1-4)GlcNAc(b1-3)Gal(b1-4)[Fuc(a1-3)]GlcNAc(b1-3)Gal(b1-4)[Fuc(a1-3)]GlcNAc
# Procedure, shortened: as §1
# [45] = target: GlcNAc(a1-6)Gal(b1-4)GlcNAc
# Procedure, shortened: as §1
binder,measurement,setting,value
TIM1 (protein) ADGIQSVKVGGEAGPSVTLPCHYSGAVTSMCWNRGSCSLFTCQNGIVWTNGTHVTYRKDTRYKLLGDLSRRDVSLTIENTAVSDSGVYCCRVEHRGWFNDMKITVSLEIVPPHHHHHH,glycan array binding signal (z-score),[1],0.013
same,glycan array binding signal (z-score),[2],-0.175
same,glycan array binding signal (z-score),[3],-0.015
same,glycan array binding signal (z-score),[4],-0.084
same,glycan array binding signal (z-score),[5],-0.218
same,glycan array binding signal (z-score),[6],-0.178
same,glycan array binding signal (z-score),[7],-0.2
same,glycan array binding signal (z-score),[8],-0.235
same,glycan array binding signal (z-score),[9],0.287
same,glycan array binding signal (z-score),[10],-0.182
same,glycan array binding signal (z-score),[11],-0.257
same,glycan array binding signal (z-score),[12],-0.14
same,glycan array binding signal (z-score),[13],-0.188
same,glycan array binding signal (z-score),[14],-0.124
same,glycan array binding signal (z-score),[15],0.209
same,glycan array binding signal (z-score),[16],-0.239
same,glycan array binding signal (z-score),[17],-0.156
same,glycan array binding signal (z-score),[18],-0.249
same,glycan array binding signal (z-score),[19],-0.155
same,glycan array binding signal (z-score),[20],-0.136
same,glycan array binding signal (z-score),[21],-0.201
same,glycan array binding signal (z-score),[22],-0.095
same,glycan array binding signal (z-score),[23],-0.172
same,glycan array binding signal (z-score),[24],-0.102
same,glycan array binding signal (z-score),[25],-0.269
same,glycan array binding signal (z-score),[26],-0.198
same,glycan array binding signal (z-score),[27],-0.129
same,glycan array binding signal (z-score),[28],-0.212
same,glycan array binding signal (z-score),[29],0.029
same,glycan array binding signal (z-score),[30],-0.208
same,glycan array binding signal (z-score),[31],0.159
same,glycan array binding signal (z-score),[32],-0.039
same,glycan array binding signal (z-score),[33],-0.181
same,glycan array binding signal (z-score),[34],-0.106
same,glycan array binding signal (z-score),[35],-0.13
same,glycan array binding signal (z-score),[36],-0.033
same,glycan array binding signal (z-score),[37],-0.215
same,glycan array binding signal (z-score),[38],-0.196
same,glycan array binding signal (z-score),[39],0.413
same,glycan array binding signal (z-score),[40],-0.116
same,glycan array binding signal (z-score),[41],-0.203
same,glycan array binding signal (z-score),[42],-0.125
same,glycan array binding signal (z-score),[43],-0.259
same,glycan array binding signal (z-score),[44],2.32
same,glycan array binding signal (z-score),[45],-0.256
